Source: paper PMC10320511
These are yes or no findings as the source states them, for the method shown. In cells and extracts the contact can be indirect. Some entries that bind do so weakly or less than the wild type. Sequences can lack the tags named with a protein.

How the values were obtained:
[1] = target: T1, FRQ Δ250–310, V5H6-tagged (Neurospora crassa) (UniProt P19970); test: co-IP; V5H6-tagged FRQ (wild type or mutant) pulled down with V5 agarose from Neurospora lysate (cultures in the light, 25 °C); 50 mM Hepes pH 7.4, 137 mM NaCl, 10% glycerol, 0.4% NP-40; 4 °C, 2 h; Western blot with FRQ, FRH, WC-1 and WC-2 antibodies
T1 sequence: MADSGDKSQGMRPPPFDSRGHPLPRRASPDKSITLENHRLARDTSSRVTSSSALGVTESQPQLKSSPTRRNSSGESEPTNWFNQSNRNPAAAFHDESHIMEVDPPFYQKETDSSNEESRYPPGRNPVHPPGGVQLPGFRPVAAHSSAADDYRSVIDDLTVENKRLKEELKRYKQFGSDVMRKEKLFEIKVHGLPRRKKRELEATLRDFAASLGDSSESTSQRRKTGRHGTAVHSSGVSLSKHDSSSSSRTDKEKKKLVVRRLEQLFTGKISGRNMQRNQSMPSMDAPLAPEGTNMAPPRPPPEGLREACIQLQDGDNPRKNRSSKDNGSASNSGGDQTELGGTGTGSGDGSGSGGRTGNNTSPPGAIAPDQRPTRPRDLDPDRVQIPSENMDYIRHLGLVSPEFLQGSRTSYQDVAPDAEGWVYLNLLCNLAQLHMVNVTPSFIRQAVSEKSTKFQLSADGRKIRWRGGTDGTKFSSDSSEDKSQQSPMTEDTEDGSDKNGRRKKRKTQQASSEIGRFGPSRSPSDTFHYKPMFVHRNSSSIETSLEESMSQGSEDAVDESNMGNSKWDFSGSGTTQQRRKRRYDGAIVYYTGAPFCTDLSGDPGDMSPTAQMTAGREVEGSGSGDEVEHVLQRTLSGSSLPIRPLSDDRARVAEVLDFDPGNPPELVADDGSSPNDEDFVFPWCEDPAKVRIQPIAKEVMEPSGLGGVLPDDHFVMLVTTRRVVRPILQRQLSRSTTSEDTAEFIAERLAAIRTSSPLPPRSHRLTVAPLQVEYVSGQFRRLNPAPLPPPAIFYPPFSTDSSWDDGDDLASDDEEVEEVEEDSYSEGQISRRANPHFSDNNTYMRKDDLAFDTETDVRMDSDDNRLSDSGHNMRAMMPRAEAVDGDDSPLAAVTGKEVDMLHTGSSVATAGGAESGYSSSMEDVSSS

[2] = target: T2, FRQ Δ107–148, V5H6-tagged (Neurospora crassa) (UniProt P19970); test: as above
T2 sequence: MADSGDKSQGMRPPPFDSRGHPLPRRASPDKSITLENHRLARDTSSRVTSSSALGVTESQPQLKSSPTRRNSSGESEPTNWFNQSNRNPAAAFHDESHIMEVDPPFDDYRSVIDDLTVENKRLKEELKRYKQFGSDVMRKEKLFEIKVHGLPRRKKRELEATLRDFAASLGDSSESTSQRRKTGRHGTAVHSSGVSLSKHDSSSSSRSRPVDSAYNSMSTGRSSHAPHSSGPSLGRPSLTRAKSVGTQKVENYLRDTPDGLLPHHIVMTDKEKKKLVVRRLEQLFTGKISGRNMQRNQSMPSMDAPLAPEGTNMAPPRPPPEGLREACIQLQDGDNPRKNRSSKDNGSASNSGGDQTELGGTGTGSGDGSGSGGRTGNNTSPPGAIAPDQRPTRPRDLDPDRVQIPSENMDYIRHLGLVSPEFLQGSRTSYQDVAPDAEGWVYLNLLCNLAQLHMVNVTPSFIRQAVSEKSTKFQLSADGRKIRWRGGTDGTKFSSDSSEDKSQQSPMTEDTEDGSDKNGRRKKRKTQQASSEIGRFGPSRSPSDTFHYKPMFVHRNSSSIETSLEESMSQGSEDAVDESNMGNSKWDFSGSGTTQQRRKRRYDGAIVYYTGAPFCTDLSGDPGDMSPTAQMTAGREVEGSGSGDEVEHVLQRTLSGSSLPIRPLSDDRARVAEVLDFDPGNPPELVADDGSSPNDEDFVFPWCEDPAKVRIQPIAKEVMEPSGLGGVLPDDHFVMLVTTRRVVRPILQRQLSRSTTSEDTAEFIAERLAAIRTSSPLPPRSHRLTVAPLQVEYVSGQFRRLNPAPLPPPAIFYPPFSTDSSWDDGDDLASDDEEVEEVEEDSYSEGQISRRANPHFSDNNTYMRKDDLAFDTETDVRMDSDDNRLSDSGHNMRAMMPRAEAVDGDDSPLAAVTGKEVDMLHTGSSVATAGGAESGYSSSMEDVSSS

binding [1]: binds
binding [2]: binds weakly
B1: White Collar-2 (WC-2) (protein, UniProt P78714 1-530)
chain: MSHGQPPPGSSMYGFGAMGMGSGMGSGMGSGMGTGMGTGMGTGMSASQMTSDPQDMMSLLDTSVFPGFDGMSMSLDVGDSMSNPFTPVSVPPPLPAGNAGPSHVGVCGGHGAPDQLFSPDDLIATSMSSAGPMIATPTTTTSGPSGGPSSGGGSTLTEFTKRRNWPAKVVEELQDWEHILDANGRIKHVSPSVEPLTGYKPPEIIDLFLRDLIHPDDVGVFTAELNEAIATGSQLRLFYRFRKKDGNWTIFETVGHAHIAAAKFAPNPQNQSPFCQAVFMMARPYPTKNAGLLDSFLEHKIENERLKRRIAELRREEQEEQEESHRTWRMSQEGRSDVTPSDDTATQMGMTPFYIPMNAQADVMMPPPSQPASSLNIALTRENLEGIAGSRPDSIREKMLRYEGNHADTIEMLTGLKYQEGERSHGITTGNASPTLIKGDAGIAIPLDRDPRTGEKKKKIKVAEEYVCTDCGTLDSPEWRKGPSGPKTLCNACGLRWAKKEKKKNANNNNNGGGIGGHNDIHTPMGDHMG
